Test results: the supplement of paper PMC3334620
In all, about 33,000 sequences were measured (“E-score (-0.5 to 0.5)”: median about -0.054, highest 2% from about 0.39 on). The list shows a part of the results.

target: Ylr278c (UniProt Q05854); assay: PBM E-score (8-mer binding enrichment) (E-score (-0.5 to 0.5)); higher = stronger / more preferred TF binding; most listed sequences are background and not binding sites; conditions: protein concentration: 200 nM; construct: GST-DNA-binding domain
Summary of the method: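 Bound GST-tagged yeast transcription factors, applied at about 100-200 nM to double-stranded universal all-10-mer Agilent arrays, were detected with fluorescent anti-GST. Scans were normalised with masliner. A modified Wilcoxon-Mann-Whitney statistic, the E-score, was assigned to each ungapped eight-base word pooled with its reverse complement by the Universal PBM Analysis Suite.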

Row | Sequence | PBM E-score
1 | ATAAACTG | -0.0601
2 | TAGAATAA | 0.108
3 | AAATTATA | 0.21
4 | CATCTGGC | -0.0551
5 | CATTTCGA | 0.033
6 | CTGGAATC | -0.0172
7 | TCATTGAA | -0.169
8 | GAGCGGGA | 0.192
9 | CACAGGCC | -0.133
10 | GGGCACAC | -0.173
11 | ACCTGCAT | -0.121
12 | CTAATAAG | -0.254
13 | ATCCTCAT | -0.222
14 | AGGCAGTC | -0.0589
15 | GGTCCGCA | 0.278
16 | CCTTCTCC | 0.156
17 | CCAACGTC | -0.142
18 | CTCAATTA | -0.212
19 | CGACACGA | 0.0964
20 | AACGAAGC | -0.0318
21 | AAACCTGT | -0.0896
22 | ACTAGCAT | -0.086
23 | ACATATTC | 0.0463
24 | CAGACGGA | 0.188
25 | CGCATACC | 0.186

Row | Sequence | PBM E-score
26 | AAGGCATG | -0.206
27 | AGGCGTAA | -0.156
28 | AAAGTTTC | -0.12
29 | GAGTCGCA | -0.25
30 | CAGGTGAG | -0.353
31 | GGCAATGA | -0.123
32 | CACGCTGG | -0.163
33 | CAAGTACA | -0.049
34 | CTGACTTC | 0.088
35 | GGCCCCAC | 0.0371
36 | AGCAACCG | -0.0664
37 | CATCAGGG | -0.141
38 | AACGGGCT | 0.0368
39 | GGTGATTA | 0.0698
40 | ACCCTCCA | -0.209
41 | AATCGGCC | 0.24
42 | CCGATCCA | 0.208
43 | AACTTGCG | -0.0744
44 | ATCAGACA | -0.161
45 | CTAGTTAC | 0.00831
46 | AAGGATTA | -0.0512
47 | GTACATTA | -0.0177
48 | AGGTTGAC | -0.187
49 | AGTTTGTG | -0.105
50 | CTCATGAA | -0.142

Row | Sequence | PBM E-score
51 | ATAAACAA | -0.0102
52 | CAGGGGCA | -0.0773
53 | CTCCTTCA | -0.334
54 | AGGGATAT | 0.0131
55 | GTCAAACA | -0.248
56 | CCCATGGC | -0.0499
57 | AATTTGCA | -0.0325
58 | GCGTAACA | 0.00805
59 | CCGTATCC | 0.223
60 | CATGTGCC | -0.095
61 | ATCCACGG | 0.199
62 | GTCCCGTA | -0.0338
63 | CACACTAC | -0.157
64 | AATTTAAC | 0.0785
65 | GTAGCATA | -0.0709
66 | TTAAAAAA | -0.12
67 | GTAAGGAA | -0.134
68 | CGAGCGAG | 0.164
69 | ACCCCGTG | 0.298
70 | CGTAATAC | -0.0173
71 | CCGCTGGA | 0.146
72 | ATTATTCG | 0.13
73 | CTCCAGGC | -0.113
74 | CTTGCGGC | 0.0631
75 | AATCCCGG | 0.439

Row | Sequence | PBM E-score
76 | GGCAGCAA | -0.0531
77 | ACACCCTC | 0.0306
78 | ATGCGACA | -0.142
79 | GGCCGGCC | 0.372
80 | GCGAACGA | -0.0482
81 | CTTCTGCA | -0.0808
82 | ACAATTTA | -0.193
83 | AACGCACG | 0.061
84 | GAATCTGA | -0.0915
85 | TCACACAA | -0.238
86 | AAGTTTGA | 0.0364
87 | CACGAGCC | -0.0294
88 | ACGTCCGA | 0.346
89 | AGTCTTAC | -0.27
90 | AGCTTGCA | -0.0898
91 | AAGATGTC | -0.0338
92 | AATCGTGT | 0.121
93 | CTTTCCAA | 0.0711
94 | AAGCACAT | 0.0518
95 | AACTCGGA | 0.392
96 | AGACGTCA | -0.227
97 | CATGGTGG | -0.0593
98 | CGTATTCC | 0.17
99 | GCAGACCC | -0.0641
100 | CGGCAGCC | 0.296

Row | Sequence | PBM E-score
101 | AATCTTAC | 0.0781
102 | AGTCCATA | -0.217
103 | GATCCGAC | 0.285
104 | ACTCGGCT | 0.0553
105 | AGAGATTA | -0.143
106 | ACCCGACG | 0.235
107 | CATAGGAG | -0.136
108 | ACTAACCA | -0.0811
109 | GCGCCTAA | 0.0272
110 | CACCGAAA | 0.184
111 | CTCACAGC | -0.167
112 | ACCAATTG | -0.257
113 | ATCTGCGG | 0.281
114 | AAATCCTA | 0.0982
115 | AGAACCGG | 0.345
116 | ACGCCTCC | 0.145
117 | ATCCCCAG | -0.0933
118 | AGGGGGAG | -0.183
119 | AGCCGTTG | -0.00615
120 | ACTGAAGA | 0.0196
121 | ATCTGAAT | -0.161
122 | CCGTTGCC | 0.16
123 | CCCGGCGC | 0.338
124 | GGCTGTCA | -0.302
125 | ACAGGGAG | -0.105

Row | Sequence | PBM E-score
126 | CCGAACTC | 0.165
127 | AGTGCAGG | -0.104
128 | AGATACCA | 0.0255
129 | AGCGGAAA | 0.358
130 | ACTCTCAT | -0.132
131 | CCATGTAA | 0.0732
132 | TAAGGCAA | -0.0891
133 | ATACCTTA | -0.112
134 | TCAGGCCA | -0.112
135 | AGTGTTAG | -0.115
136 | AGTCATTG | -0.277
137 | CCACGGCA | 0.138
138 | GGGCTTAC | 0.0645
139 | AAGGTGTG | -0.119
140 | CCCCTCAA | -0.0006
141 | CTACGTCC | 0.0551
142 | GTACCCCA | 0.066
143 | ACAGGGCT | -0.323
144 | ACATTACC | 0.108
145 | ACGTAGCC | -0.111
146 | ATTTAAGA | -0.154
147 | ATTAGCCA | -0.299
148 | GTCTATCA | -0.0954
149 | CCGGGGAC | 0.242
150 | ACAGGAAA | 0.054

Row | Sequence | PBM E-score
151 | ACCTCGAA | -0.134
152 | ACATGATA | -0.0375
153 | GCTGTTCA | -0.292
154 | ACAGAATA | -0.0396
155 | GAATACAC | -0.0158
156 | GCAAGTGA | -0.212
157 | TAGGACAA | -0.233
158 | AGGTTACA | -0.124
159 | CCCGTGGC | 0.0225
160 | GCCACCTA | -0.232
161 | AATCCAAA | 0.142
162 | CATGGGCA | -0.274
163 | GTGCAGCA | -0.0636
164 | AATTCACG | -0.0176
165 | AAGTAGGG | -0.139
166 | CAACCTAC | -0.0449
167 | AACTTTTC | -0.0461
168 | AGGGCCGG | 0.239
169 | AACTGGGC | -0.0654
170 | AACATCCC | 0.147
171 | GGGACGCA | -0.28
172 | CAGTATTA | -0.0204
173 | ACGAGAAT | -0.039
174 | AATTGACC | 0.0785
175 | CGCACTAG | -0.0868

Row | Sequence | PBM E-score
176 | CTATCCCC | 0.0184
177 | CGCTCTAG | -0.113
178 | CAGGACGA | -0.102
179 | AGGTTCCC | -0.0971
180 | AAACTGCA | -0.043
181 | ACCGGAAG | 0.388
182 | AGAGCTAT | -0.214
183 | CCTACTGC | -0.219
184 | CATCCCTA | -0.0767
185 | GTCTACAC | -0.00271
186 | AACTAACA | -0.0111
187 | AATATCCG | 0.423
188 | GTCAGTAA | -0.188
189 | AGTAACCA | -0.077
190 | AACCACTC | -0.128
191 | CGAGCGAC | -0.0219
192 | AAGCATCT | -0.0745
193 | CCCTATCA | -0.19
194 | ACAATTGT | -0.199
195 | ACCTATGA | -0.261
196 | CGCGTTTC | 0.0125
197 | AGCGGTGC | -0.18
198 | GATATTAC | 0.0972
199 | CATGCAGA | -0.211
200 | AATCGTAT | -0.151

Row | Sequence | PBM E-score
201 | CTAGGCTA | -0.193
202 | AGCGGCAC | 0.115
203 | AGGTGTAG | -0.123
204 | AAATATTC | 0.0188
205 | GGGTAACC | -0.0903
206 | CGAGTAAA | 0.0658
207 | GTCTGGGA | -0.341
208 | AAATAGAA | -0.00131
209 | CCCTTGGC | -0.251
210 | CGATTTAG | 0.251
211 | GGCACTAC | -0.0733
212 | AAGTCGGT | 0.113
213 | GCGCTAAA | 0.0854
214 | GTTCGTTA | -0.185
215 | CGGTTGAG | 0.047
216 | GAGTCGCC | 0.0773
217 | ACTATTCC | 0.279
218 | ATGTGCGG | 0.224
219 | GGTACTGA | -0.0854
